Variants at the floor of the assay are shown more often than the library holds them.
B1: TPR 5TU (parent)
chain: GGAUCUUCUCGAUCUAACAAAAAAGACAAAUCUGCCACAAAGCUUGAGAGCAUCUUCGGAUGCAGAGGCGGCAGCCUUCGGUGGCGCGAUAGCGCCAACGUUCUCAACUAUGACACGCAAAACGCGUGCUCCGUUGAAUGGAGUUUAUCAUG

Variants of: B1
Test: polymerase ribozyme fitness, log enrichment relative to wild type (log ratio); higher = more active; in vitro selection for triplet polymerase activity
In short: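 Frozen incubation at −7 °C formed the core of a single, triplicate in vitro selection round applied to PCR-built, transcribed mutant libraries of each subunit of a heterodimeric triplet polymerase ribozyme. Extended constructs were gel-excised, captured with streptavidin beads and amplified by RT-PCR, and input and output libraries were Illumina-sequenced with a filter of ≥10 input reads and ≥1 read per output. Fitness is the logarithm of genotype enrichment relative to wild-type enrichment, with inverse-variance-weighted replicate averaging, and the logarithm is base 2.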

Point of comparison: GGAUCUUCUCGGGCUAACAAAAAAGACAAAUCUGCCACAAAGCUUGAGAGCAUCUUCGGAUGCAGAGGCGGCAGCCUUCGGUGGCGCGAUAGCGCCAACGUUCUCAACUAUGACACGCAAGACGCGUGCUCCGUUGAAUGGAGUUUAUCAUG [A12G U13G A121G], “polymerase ribozyme fitness (log ratio)” value -2.27. Against it:
- GGAUCUUCUCGGUCUAACAAAAAAGACAAAUCUGCCACAAAGCUUGAGAGCAUCUUCGGAUGCAGAGGCGGCAGCCUUCGGUGGCGCGAUAGGGCCAACGUUCUCAACUAUGACACGCAAAACGCGUGCUCCGUUGAAUGGAGUUUAUCAUG [A12G C93G] — lower, -2.99
- GGAUCUUCUCGGUCUAACAAAAAACACAAAUCUGCCACAAAGCUUGAGACCCAUCUUGGAUGCAGAGGCGGAAGCCUUCGGUGGCGCGAUAGCGCCAACGUUCUCAACUAUGACACGCAAAACGCGUGCUCCGUUGAAUACAGUCUAUCAUG [A12G G25C G50C A52C U53A C54U U55C C57U C72A G140A G141C U145C] — lower, ≤ -4.2
- GGAUCUUCUCGGUCUAACAAAAAACACAAAUCUGCCAGAAAGCUUGAGGGCAUCAUCGGAUGGACAGGCGGCAGCCUUCGGUGGCGCGAUAGCGCCAACGUUCUCAACUAUGACACCCAAAACGCGUGCUCCGCUGAAUGGAGUUUAUCAUG [A12G G25C C38G A49G U55A C63G G65C G117C U134C] — lower, ≤ -4.2
- GGAUCUUCUCGGUCUAACAAAAAAGACAAAUCUGCCACAAAGCUUGAGAGCAUCUUCGGAUGCAGAGGCGGCAGCCUUCGGUGGCGCGAUAGGGCCAGCGUUCUCAACUAUGACACGCAAAACGCGUGCUCCGUUGAAUGCAGUUUAUCAUG [A12G C93G A98G G141C] — lower, -2.52
- GGAUCUUCUCGGUCUAACAAAAAAGACAAAUCUGCCACAAAGCUUGAGAGCAUCUUCGGAUGCAGAGGCGGCAGCCUUCGGUGGCGAGAUAGCGCCAACGUUCUCAACUAUGACACGCAAAACGCGUGCUCCGUUGAAUGGAGUUUAUCAUG [A12G C87A] — lower, ≤ -4.2
- GGAUCUUCUCGGUCUAACAAAAAAGACAAAUCUGCCAGAAAGCUUGAGAGCCUCUUCGUAUGCAGAGGCGGCAGCCUUCGGUGGAGCGAUAGCGUCAACGUUCUCAACUAUGACAGGCAAAACGCGUGCUCCGUUGAAUGGAGUUUAUCAUG [A12G C38G A52C G59U C85A C95U C116G] — lower, ≤ -4.2
- GGAUCUUCUCGGUCUAACAAAAAAGACAAAUUUGCCACAAAGCUUGAGAGCAUCUUCGGAUGCAGAGGCGGCAGCCUUCGGUCGCGCGAGAGCGCCAACGUUAUCAACUAUGACACGCAAAACGCGUGCUCCGUUGAAUGGAGUUUAUCAUG [A12G C32U G83C U90G C103A] — lower, ≤ -4.2
- GGAUCUUCUCGGUCUAACAAAAAAGACAAAUCUGCCACAAAGCUUGAGAGCAUCUUCGGAUGCAGAGGCGGCAGCCUUUGGUGGCGCGAUAGGGCCAACGUUCUCAACUAUGACACGCAAAACGCGUGCGCCGUUGAAUGGAGUUUAUCAUG [A12G C79U C93G U130G] — lower, ≤ -4.2
- GGAUCUUCUCGGUCUAACAAAAAAGACAAAUCUGCCACAAAGCUUGAGAGCAUCUUCGGAUGCAGAGGCGGCAGCCUUCGUUGGCGCGAUACCGCCAACGUUCUCAACUAUGACACGCAAAACGCGUGCUCCGUGGAAUGGAGUUUAUCAUG [A12G G81U G92C U135G] — lower, ≤ -4.2
- GGAUCUUCUCGGUCUAACAAAAAAGACAAAUCUGCCACAAAGCUUGAGAGCAUCUUCGGAUGCAGAGGCGGCAGCCUUCGGUGACGCGAUAGCGCCAACGUUCUCAACUAUGACACGCAAAACGCGUGCUCCGUUGAAUGGAGUUUAUCAUG [A12G G84A] — higher, -0.68
- GGAUCUUCUCGGUCUAACAAAAAAGACAAAUUUGCCACAAAGCUUGAGAGCAUCUUCGGAUGCAGAGGCGGCAGCCUUCGGUGGAGCGAUAGCGCCAACGUUCUCAACUAUGACACGCAAAACGCGUGCUCCGUUGCAUGGAGUUUAUCAUG [A12G C32U C85A A137C] — lower, ≤ -4.2
- GGAUCUUCUCGGUCUAACAAAAAAGACAAACCUGCCACAAAGCUUGAGAGCAUCUUCGUAUGCAGAGGCGGCAGCCUUCGGUGUCGCGAUAGCGCCAACGUUCUCAACUAUGACACCCAAAACGCGUGCUCCGUUGAAUGCAGUUUAUCAUG [A12G U31C G59U G84U G117C G141C] — lower, ≤ -4.2
- GGAUCUUCUCGGUCUAACAAAAAAGACAAAUCUGCCACAAAGCUUGAAAGCAUCUUCGGAUACAGAGGCGGCAGCCUUCGGUGACGCGAUAGCGCCAACGUUCUCAACUAUGACACGCAAAACGCGUGCUCCGUUGAAUGGACUUUAUCAUG [A12G G48A G62A G84A G143C] — lower, ≤ -4.2
- GGAUCUUCUCGGUCUAACAAAAAAGACAAAUCUGCCACAAAGCUUGAGAGCAUCUUCGGAUGCAGAGGCGGCAGCCUUCGGUAGCGCGAUAGCGCCAAGGUUGUCAAGUAUGACACGCAAAACGCGUGCUCCGUUGAAUGGAGUUUAUCAUG [A12G G83A C99G C103G C108G] — lower, ≤ -4.2
- GGAUCUUCUCGGUCUAACAAAAAAGACAAAUCUGCCACAAAACUUGAGAGCAUCUUCGGAUACAGAGGCGGCAGCCUUCGGUGGCGCGAUAGCGCCAACGCUCUGAACUAUGACACGCAAAACGCGUGCUCCGGUGAAUGGAGUUUAUCAUG [A12G G42A G62A U101C C105G U134G] — lower, ≤ -4.2
- GGAUCUUCUCGGUCUAACAAAAAAGACAAAUCUGCCACAAAGCUUGAGAUCAUCUUCGGAUCCAGAGGCGGCAGCCUUCGGUGGCGCGAUAGCGCCAACGUUCUCAACUAUGACUCGCAAAACGCGUGCUCCGUUUAAUGGAGUUUAUCAUG [A12G G50U G62C A115U G136U] — lower, ≤ -4.2
- GGAUCUUCUCGGUCUAACAAAAAAGACAAAUCUUCCACAAAGCUUGAGCGCAUCUUCGGAUGCACAGUCGGCAGCCUUCGGUGGCGUGAUAGCGCCAACGUUCUCAACUAUGACACGCAAAACGAGUGCUCCGUUGAAUGGAGUUUAUCAUG [A12G G34U A49C G65C G68U C87U C125A] — lower, ≤ -4.2
- GGAUCUUCUCGGUCUAACAAAAAAGACAAAUCUGUCACAAAGCUUGAGAGCAUCUUCGGUUGCAGAGGCGGCAGCCUUCGGUGGCGCGAUAGCGCCAACGUUCUCAACUAUGACACGCAAAACCCGUGCUCCGUUGAAUGGAGUUUCUCAUG [A12G C35U A60U G124C A147C] — lower, ≤ -4.2

From the RNAGym collection of RNA variant scans (doi:10.1073/pnas.2313332121)
